Measured values from PubChem BioAssay (NCI).
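In this assay, cells in 96-well plates receive the compound at five concentrations for 48 hours. Endpoints are linearly interpolated between the surrounding concentrations. GI50: concentration for 50% inhibition of growth. TGI: concentration producing complete growth inhibition.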

Test system: NCI-H322M lung
Assay: inhibition of tumour cell growth, NCI panel, 48 h

Structure (SMILES): O=C(NO)c1ccc(CNC(=O)[C@H]2Cc3c([nH]c4ccccc34)[C@H](c3ccc(Cl)cc3)N2)cc1
- GI50: 1.62 µM
- TGI: 19.1 µM
